# Laboratory results: PubChem BioAssay AID1347165 (National Center for Advancing Translational Sciences (NCATS), 2019)
# Hit rate of the full screen: of about 220,000 compounds, about 5,700 (2.6%) were called active. The inconclusive results got no clear call from the source; some entries with a clear call stand among them for comparison. Calls come from the whole dose curve; as a rule, active = well fitted inhibition curve with a large enough effect; inconclusive = small, poorly fitted or top-dose-only effect; inactive = no such curve, though single readings can be large or run the other way. Where the call is inconclusive, the potency comes from a doubtful curve fit.
# Biological target: Lysine-specific demethylase 5B (Homo sapiens) (UniProt Q9UGL1)
# UniProt Q9UGL1, sequence (Q9UGL1 whole entry, looked up): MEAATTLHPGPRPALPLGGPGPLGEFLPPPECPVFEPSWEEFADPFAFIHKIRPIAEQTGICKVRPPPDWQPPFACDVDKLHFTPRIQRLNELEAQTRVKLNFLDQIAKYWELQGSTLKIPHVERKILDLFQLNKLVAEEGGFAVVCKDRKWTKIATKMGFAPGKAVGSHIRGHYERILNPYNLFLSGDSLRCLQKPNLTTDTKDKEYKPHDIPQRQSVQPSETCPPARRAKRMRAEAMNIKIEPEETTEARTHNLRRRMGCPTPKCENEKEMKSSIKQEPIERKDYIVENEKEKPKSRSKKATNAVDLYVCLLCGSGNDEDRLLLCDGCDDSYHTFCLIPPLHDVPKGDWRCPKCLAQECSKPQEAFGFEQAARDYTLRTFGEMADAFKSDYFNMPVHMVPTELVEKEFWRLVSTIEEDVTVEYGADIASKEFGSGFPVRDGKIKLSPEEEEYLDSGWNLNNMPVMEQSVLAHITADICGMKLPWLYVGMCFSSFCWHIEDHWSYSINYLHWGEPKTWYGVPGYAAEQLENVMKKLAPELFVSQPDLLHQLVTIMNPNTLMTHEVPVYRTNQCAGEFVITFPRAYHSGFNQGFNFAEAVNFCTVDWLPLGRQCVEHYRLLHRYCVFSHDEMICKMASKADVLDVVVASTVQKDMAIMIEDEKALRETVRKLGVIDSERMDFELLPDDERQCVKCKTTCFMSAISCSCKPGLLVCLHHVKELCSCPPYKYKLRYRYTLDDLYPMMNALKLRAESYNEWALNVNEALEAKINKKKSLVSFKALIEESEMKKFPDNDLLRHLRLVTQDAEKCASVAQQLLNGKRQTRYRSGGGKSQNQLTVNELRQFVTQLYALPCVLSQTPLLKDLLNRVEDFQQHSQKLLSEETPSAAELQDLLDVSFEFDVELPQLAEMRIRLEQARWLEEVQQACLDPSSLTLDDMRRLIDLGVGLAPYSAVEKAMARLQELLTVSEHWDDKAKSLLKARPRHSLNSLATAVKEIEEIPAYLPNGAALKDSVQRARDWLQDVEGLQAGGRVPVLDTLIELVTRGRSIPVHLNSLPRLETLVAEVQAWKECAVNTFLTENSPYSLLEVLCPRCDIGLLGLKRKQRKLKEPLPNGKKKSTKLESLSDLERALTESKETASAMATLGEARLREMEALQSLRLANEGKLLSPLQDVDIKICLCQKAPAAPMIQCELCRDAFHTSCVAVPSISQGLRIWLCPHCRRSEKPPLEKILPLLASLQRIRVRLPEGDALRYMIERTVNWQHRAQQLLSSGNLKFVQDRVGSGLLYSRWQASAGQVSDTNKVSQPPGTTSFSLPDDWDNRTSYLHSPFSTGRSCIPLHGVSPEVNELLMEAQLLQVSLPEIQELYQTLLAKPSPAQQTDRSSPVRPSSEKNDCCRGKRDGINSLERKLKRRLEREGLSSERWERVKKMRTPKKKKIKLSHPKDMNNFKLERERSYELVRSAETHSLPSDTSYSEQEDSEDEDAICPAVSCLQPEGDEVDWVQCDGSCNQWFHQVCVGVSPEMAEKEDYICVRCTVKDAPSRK
# Test: Primary screen for KDM5B Histone Demethylases FDH-coupled qHTS; note: nearly all actives have a fitted effect of over 70% in size
# Details: FDH-coupled NADH fluorescence (FDH is formaldehyde dehydrogenase); series mostly up to 57.7 µM
# In short: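 Here, H3K4me3 peptide (12.5 µM in substrate mix) is demethylated by KDM5BΔAP, 200 nM final, after 10 min compound exposure. Formaldehyde product is coupled through FDH (0.25 U/mL in mix) to NADH fluorescence; 30-min ΔRFU feeds dose-response curves.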
# Potency is the fitted concentration of half-maximal effect; tags give direction and shape of the fitted curve.
row,Structure (SMILES),Potency
1,O=C1CN(C(=O)Cn2ccc3ccccc32)CCN1,inactive
2,NC(=O)C1CCN(CC(=O)Nc2cccc(Cl)c2)CC1,inactive
3,CCN(CCOc1ccc(F)cc1)C(=O)c1cnc(NC(C)C)nc1,active: 28.2 µM
4,Cc1ccc(C#N)c(N2CCC3(CC2)CC(c2ccccc2)C(=O)N3C)n1 (centres undefined),active: 28.2 µM
5,C/C(=C\c1ccccc1)CN1CCC2(CC1)Cc1ccccc1CNC2=O,"inconclusive: 44.7 µM [inhibitor, partial curve, poor fit]"
6,Cc1ccc(CSc2nc(-c3cccs3)ccc2C#N)cc1,"inconclusive: 14.1 µM [inhibitor, partial curve, poor fit]"
7,COc1cccc(-c2nccc3c(=O)cc(N4CCOCC4)oc23)c1,active: 35.5 µM
8,COC(=O)c1cccc(Nc2nc(-c3ccncc3)nc3ccccc23)c1,"inconclusive: 39.8 µM [inhibitor, single point]"
9,CCc1noc(-c2ccn3c(CNC(=O)CCC4CCCC4)nnc3c2)n1,active: 4.47 µM
10,COc1cccc(-c2nn(C)c3sc(C(=O)NCCc4ccc(Cl)cc4)cc23)c1,"inconclusive: 31.6 µM [inhibitor, partial curve, poor fit]"
11,COc1ccccc1C(=O)N1CCc2nc(C(C)C)nc(-c3ccc(O)cc3)c2C1,inactive
12,O=C(c1ccccc1)c1ccc(OCC(O)CNCc2ccc(F)cc2)cc1 (centres undefined),"inconclusive: 3.16 µM [inhibitor, full curve, poor fit]"
13,CN(Cc1ccccc1)C1(C(=O)NC2CCC(O)CC2)Cc2ccccc2C1 (centres undefined),"inconclusive: 7.08 µM [inhibitor, single point]"
14,COc1cccc(C(=O)NC2CCN(c3cc(-c4ccc(Cl)cc4)[nH]n3)C2)c1 (centres undefined),"inconclusive: 12.6 µM [inhibitor, partial curve, poor fit]"
15,COc1ccccc1CCC(=O)NCc1nnc2ccc(-c3ccc(C)c(C)c3)nn12,"inconclusive: 35.5 µM [inhibitor, partial curve, poor fit]"
16,N#Cc1nc(-c2ccc(S(=O)(=O)N3CCCC3)cc2)oc1NCc1ccc2c(c1)OCO2,"inconclusive: 1 µM [inhibitor, full curve, poor fit]"
17,CN(Cc1nc2ccccc2n1C(F)F)S(=O)(=O)c1c(F)cccc1F,inactive
18,O=c1c2nc(-c3ccsc3)ccc2ncn1Cc1ccccn1,"inconclusive: 39.8 µM [inhibitor, partial curve, poor fit]"
19,COc1ccc(-c2nc3cc(NC(=O)c4cc(OC)cc(OC)c4)ccc3o2)cc1,"inconclusive: 31.6 µM [inhibitor, partial curve, poor fit]"
